# Laboratory results: ChEMBL document CHEMBL4888484, “Replenishing the malaria drug discovery pipeline: Screening and hit evaluation of the MMV Hit Generation Library 1 (HGL1) against asexual blood stage Plasmodium falciparum ,using a nano luciferase reporter read-out” (2022)
# Screen size: about 150,000 compounds; about 540 (0.36%) showed an effect of 50% or more. This is one part of the list.
# Test system: Plasmodium falciparum
# Assay: Primary screen in NF54 nanoGlo assay, in single point, at 2uM, 72h; a lower Z score goes with more inhibition
# Type: functional, Erythrocyte
# Details: timepoint 72 hour
Structure (SMILES),% Inhibition [%],Z score
Cc1nc(C(C)C)sc1-c1nc(C(C)C)no1,-4,0.5
O=C(NC[C@H]1CCCN(C(=O)C2CCOCC2)C1)c1ccc2ccccc2n1,-10,1.71
COc1cncc(O[C@H]2CCN(S(=O)(=O)c3cc(C)ccc3OC)C2)n1,-8,0.94
CN1CC2(CCN(C(=O)c3coc(CN4CCOCC4)c3)CC2)CC1=O,-10,1.22
O=C(CCc1cnccn1)N1CCC[C@H](c2ccc(F)cc2)CC1,-14,1.88
c1ccc2c(c1)CCC(CN1CCCC(c3nnc4n3CCC4)C1)C2 (configuration not stated),-4,0.52
Cc1cccc2c1N(S(=O)(=O)c1c(C3OCCO3)cnn1C)CC2,9,-1.8
O=C(CN1C(=O)NC2(CCCC2)C1=O)N1CCC(c2nc3ccccc3o2)CC1,-10,1.36
CCOc1ccc(NC(=O)C2[C@@H]3C=C[C@]4(O3)C(C(=O)NC3CCCCC3C)N(Cc3ccc5c(c3)OCO5)C(=O)[C@H]24)cc1 (some centres not stated),-12,1.83
Cc1c(Cl)ccc2c(C(=O)N3CCCC[C@@H]3C)cc(-c3cccnc3)nc12,-18,2.13
CN(C[C@H]1CCCCN1C)C(=O)[C@H]1CC[C@@H](O)CC1,-2,0.35
CCn1nc(C)cc1C(=O)Nc1nc2c(OC)cccc2n1C,12,-1.91
O=C(NC[C@H]1OC[C@@H](NCc2cccs2)[C@@H]1O)c1ccc(F)cc1,-2,0.31
Cn1nnc(CNC(=O)C2=CCCCCC2)n1,-18,1.9
CC(NCC1CCCS1(=O)=O)c1ccc(F)cc1OC(F)F (configuration not stated),-1,0.1
CC(C)c1nccc(N2CCC[C@H](Cn3cncn3)C2)n1,-6,1.11
CC1c2ccsc2CCN1C(=O)C1CC12CC2 (configuration not stated),-4,0.81
CCCN(CC(=O)N1CCCCC1)C1C2CCOC2C1(C)C (configuration not stated),3,-0.61
CN(c1ccc(NC(=O)N2CCC[C@H](c3nncn3C)C2)cc1F)C1CCCCC1,-13,1.69
Cc1ccc(NC(=O)CN2CC(=O)NC2=O)cc1OCc1cccc(Cl)c1,0,0.04
COc1ccc(-n2ncc(Oc3ccc(Cl)cc3)c(Nc3cccc(C(=O)NC4CC4)c3)c2=O)cc1,9,-0.86

Structure (SMILES),% Inhibition [%],Z score
C[C@H]1CCCN(CCC(=O)N2CCc3onc(-c4ccccc4)c3C2)C1,-7,1.38
CCN(C(=O)c1cnn(C)c1)c1ccccc1,4,-0.58
CCO[C@H]1C[C@@H](O)C12CCN(C(=O)CCc1cnn(C)c1)CC2,-6,1.1
NCc1ccnc(OCC2CC(F)(F)C2)c1,1,-0.14
COc1ccc([C@@H]2N(c3ccc(Cl)cc3)OC(=O)N2c2ccccc2)cc1,1,-0.09
CCS(=O)(=O)C1CN(C(=O)c2ccc(OCC(C)C)nc2)C1,-5,0.91
CCn1nc(C(=O)NCc2ccncc2)c2c1CC[C@H](NCc1ccc(C)c(F)c1)C2,-1,0.13
CCC(C)C(C)NC(=O)N1CCCC(c2nn(-c3ccccc3)cc2C(N)=O)C1 (configuration not stated),-14,1.51
O=C(c1cc(C2CC2)on1)N1CC(c2nc(-c3ccncc3)no2)C1,-14,2.69
Cc1cc(Cn2ccc(-c3cccc(-c4nccc5occc45)c3)n2)no1,-10,0.92
Cc1cnccc1CNC(=O)N1CCN(c2nccnc2C#N)C[C@@H]1C,-9,1.34
C=C[C@H]1OCC[C@@H]1NC(=O)c1c(O)cc(Cl)cc1Cl,-11,1.41
COc1ccc(CC(=O)N2CC3(C[C@@H](c4noc(-c5ccccn5)n4)N(C)C3)C2)cc1,-11,1.24
Cc1cc(NC(=O)C2CCOCC2)sn1,0,-0.02
CCCCNC(=O)c1c(NC(=O)[C@@H]2CCCCO2)nc(C)n1C,4,-0.83
CC1(C)CCc2nnc(Cn3ccc4ccccc43)n2C1,-20,3.06
COC[C@H]1CCN(C(=O)Nc2ccc3c(c2)Nc2ccccc2CC3)C1,-11,1.34
CN1CC2(C[C@H]1C(=O)NCc1ccc(N3CCOCC3)cc1)CN(Cc1ccccc1)C2,5,-0.94
Cc1ncsc1CCN(C)[C@@H](C(=O)O)c1ccc(N2CCCCC2)nc1,-11,1.37
CC(Cc1ccccc1)(NC(=O)C1CCCN(C(=O)c2ccoc2)C1)C(=O)O (configuration not stated),-9,1.33
COc1ccc(CNC(=O)C2CCN(S(=O)(=O)N3CCC(C)CC3)CC2)c(OC)c1,-3,0.4

Structure (SMILES),% Inhibition [%],Z score
CCOc1ccc(CNc2cc(C(=O)NCCCn3ccnc3)cc(S(=O)(=O)N(C)C)c2)cc1,0,-0.05
Cc1ncc2n1CC[C@H](C(=O)Nc1ccc(C3CC3)cn1)C2,5,-0.62
COc1cccc(S(=O)(=O)N2CCc3c(c(-c4nc(-c5ccccc5)no4)nn3C)C2)c1,4,-0.44
O=C(N[C@H]1CCS(=O)(=O)C1)c1ccc(S(=O)(=O)c2ccccc2)o1,-8,1.07
Cn1c(-c2ccc(Cl)c(Cl)c2)c[n+](CC(=O)c2cccc(Br)c2)c1N,5,-0.77
C[C@H](O)c1nc2cc(-c3ccc(CCC(=O)O)cc3)ccc2[nH]1,-18,1.94
COCCN(CC(=O)NCc1ccccc1F)Cc1cccnc1,-2,0.28
NC(=O)Nc1ccc(NC(=O)c2ccc3c(c2)CCCC3)cc1,-4,0.77
Cc1ccc(NC(=O)CC(C)(C)CC(=O)N2CCc3ccccc3C2)cc1Cl,-1,0.2
O=C(CS(=O)(=O)Cc1csc(-c2cccs2)n1)Nc1ccc(F)cc1F,-12,1.52
O=C(c1nc2ccc(Cl)cn2c1CNCCc1cnccn1)N1CCCCCCC1,-5,0.74
CC(C)CC1NC(=O)N(C2CC3CCC2O3)C1=O (configuration not stated),-7,0.93
CCCc1nc(C)cc(N2CCC3(CCC(=O)N(Cc4cccnc4)C3)CC2)n1,17,-2.29
Cc1ccc(F)c(OC2(C(=O)O)CCN(C[C@H]3CCOC3)CC2)c1,-9,1.16
O=C1C[C@H](NCc2ccco2)C(=O)N1CCc1ccccc1,-6,1.21
COc1cccc(-c2ccc(N3CCN(C(=O)CN(Cc4ccc5c(c4)OCO5)C(=O)c4ccccc4F)CC3)nn2)c1,0,-0.02
COc1cc(Cl)ccc1C(=O)N1CC[C@H](CN2CCCCC2)C1,4,-0.4
Cc1ccc2oc(CN3CCC[C@@]4(CCS(=O)(=O)C4)C3)cc2c1,-4,0.66
COc1cccc([C@@H]2CCN2C(=O)c2cc(C)c(C)c(S(N)(=O)=O)c2)c1,-5,0.83
CC(C)(C)C(=O)N1CCC(Cn2cncc(-c3ccccc3)c2=O)CC1,28,-3.51
COCCNC(=O)NCC#CCN1CCc2ccccc2C1,-7,0.85

Structure (SMILES),% Inhibition [%],Z score
CCCS(=O)(=O)N(CCOC)CC(=O)N(Cc1ccc(Cl)cc1)C1CCN(C(=O)NCC)CC1,-5,0.67
O=C(CN1C(=O)CCCc2cc(S(=O)(=O)N3CCOCC3)ccc21)Nc1ccc2c(c1)OCO2,-7,0.87
CN1CCN(C(=O)c2nccc3ccsc23)C(C)(C)C1,-8,0.81
CCOC(=O)N1CCN(c2cn[nH]c(=O)n2)CC1,-15,2.01
CCC(CC)N(CC(=O)N1CCN(S(C)(=O)=O)CC1)c1ccc(C)c(C)c1,-1,0.12
Cc1nn(C)c(C)c1S(=O)(=O)N1C(C)C(=O)NC(C)C1C (configuration not stated),-9,1.84
Cc1cnc(CNC(=O)[C@H]2CCO[C@@H]2c2ccccc2)c(C)c1,3,-0.58
Cc1c2c(nc3c(S(=O)(=O)c4ccccc4)c(N4CCNCC4)nn13)CCC2,-4,0.76
CCN(CC(=O)Nc1ccc2c(c1)OCCO2)C(=O)[C@H](C)Oc1ccc(Cl)cc1,3,-0.43
COc1cccc2c(=O)n(CC3CCCC3)ncc12,-5,0.55
C[C@@H](C(=O)NC(N)=O)N(C)Cc1cc(Br)ccc1F,-6,0.86
C[C@H]1CCCCN1C(=O)c1ccc(NCc2cn(C(C)(C)C)nn2)cc1Cl,-9,1.2
CCN(CC1CCCO1)C(=O)CC1(c2ccccc2)CC(=O)N(Cc2ccc3c(c2)OCO3)C1=O (configuration not stated),-2,0.28
Cc1c(C#N)c(NC(=O)[C@H]2CCCO2)n2ccccc12,4,-0.81
CCc1nc(C)c(C(=O)Nc2ccccc2CCC(=O)NC)o1,-8,1.51
CC(C)c1nc2n(n1)C1(CCCCC1)[C@@H]1CCCC[C@@H]1N2,-4,0.64
CC1CC1N1CC(NC(=O)Nc2ccccc2Cl)CC1=O (configuration not stated),-2,0.24
CC(C)C[C@@]1(C2CCN(Cc3cccnc3)CC2)NC(=O)N(CCc2cccs2)C1=O,-4,0.63
